Among all 420,000 compounds or so, about 64,000 (15%) were called active. The shares of active, inactive and inconclusive entries below differ from those in the screen. Calls follow the shape of the dose curve; as a rule, active = well fitted inhibition curve with a large enough effect; inconclusive = small, poorly fitted or top-dose-only effect; inactive = flat fitted curve, though single readings scatter. No potency is given beside an inconclusive call; the fits are too rough.
Assay: qHTS for Inhibitors of human tyrosyl-DNA phosphodiesterase 1 (TDP1): qHTS in cells in absence of CPT; also: nearly all actives have a fitted effect of over 55% in size
Conditions: DT40 Tdp1-/- hTDP1 cells, no CPT, ATP luminescence, 48 h; activity change, negative = growth inhibition: at 46.2 µM (top of the series) unless noted
In short: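 DT40 Tdp1-/-;hTDP1 cells, no CPT (DMSO vehicle only), 400 cells/well; compounds pin-transferred; ≥48 hr, 37 °C; CellTiter-Glo 30 min RT dark, luminescence read.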
% is scaled to controls: 0 for no effect and ±100 for the full control effect; potency is read from the fitted curve at half-maximal effect; tags tell the direction and shape of the fitted curve.

With `O=C(NCc1ccccc1)c1onc(CSc2nc3ccccc3[nH]2)c1C(=O)NCc1ccccc1` as the molecule, how does the Potency read?
Its Potency is inconclusive [inhibitor, single point].

With `CCN(CC)C(=O)CSc1nc(O)c(Cc2ccc(OC)cc2)c(=O)[nH]1` as the molecule, how does the Potency read?
The Potency was “inactive”.

With `COc1ccc(C(CCN2CCCC2)c2c(OC)cc(OC)c3c(-c4ccccc4)cc(=O)oc23)cc1` (stereo unspecified) as the molecule, how does the Potency read?
The Potency was active: 16.4 µM.

For `CON(C)c1nc(OCCNC(=O)OCc2ccc(Cl)cc2Cl)nc(N(C)C)n1`, which Potency is on record?
Its Potency is active: 8.2 µM.

With `Cc1cccc(-n2cc(CNCCc3nc(C)cc(C)n3)c(-c3cccc(F)c3)n2)c1` as the molecule, how does the Potency read?
The Potency was active: 4.61 µM.

Which Potency does the source give for `Cc1ccc(-c2nn(CCC(=O)NC(C)C)c(=O)c3ccccc23)cc1` here?
The Potency was inconclusive [inhibitor, partial curve].

With `CN(CC(=O)Nc1ccc(N2CCOCC2)cc1)C(=O)c1ccc(O)c(Cl)c1` as the molecule, how does the Potency read?
The Potency was “inactive”.

With `Cc1coc2cc3oc(=O)c(CCC(=O)NCCN4CCOCC4)c(C)c3cc12` as the molecule, how does the Potency read?
The Potency was inconclusive [inhibitor, single point].

With `Cc1cc(C(=O)N2CCOc3ccc(CN4CCC(Oc5cccnc5)CC4)cc3C2)c(C)o1` as the molecule, how does the Potency read?
The Potency was inconclusive [inhibitor, single point].

Which Potency does the source give for `COc1ccnc2c1c(=O)n(Cc1c(F)cccc1Cl)c(=O)n2C` here?
The Potency was inconclusive [inhibitor, single point].

For `OCCOc1cccc(CN2CCC(CO)(CCOc3ccccc3)CC2)c1`, which Potency is on record?
Its Potency is “inactive”.

Which Potency does the source give for `COc1ccccc1-c1cc2nc(NCCc3ccncc3)ccn2n1` here?
The Potency was inconclusive [inhibitor, single point].

For `Cc1cccc2cc(CN(CC3CCCO3)C(=S)Nc3ccccc3)c(=O)[nH]c12` (stereo unspecified), which Potency is on record?
The Potency was inconclusive [inhibitor, partial curve, poor fit].

With `Cc1cccc(C)c1NC(=O)C1(C)CCC(=O)N1C1CC1` (stereo unspecified) as the molecule, how does the Potency read?
The Potency was “inactive”.

With `COc1nc(N)c(C#N)c(-c2ccc(N(C)CCC#N)cc2)c1C#N` as the molecule, how does the Potency read?
Its Potency is active: 7.31 µM.

With `CCOC(=O)Nc1sc(C)c(C)c1C(=O)OCC` as the molecule, how does the Potency read?
The Potency was inconclusive [inhibitor, single point].

For `CCCCOC(=O)c1ccc(N2C(=O)CC(N3CCN(C/C=C/c4ccccc4)CC3)C2=O)cc1` (stereo unspecified), which Potency is on record?
Its Potency is inconclusive [inhibitor, single point].

Which Potency does the source give for `O=C(CN(C(=O)CCC(=O)Nc1nccs1)c1ccccc1F)NCc1ccccc1` here?
Its Potency is inconclusive [inhibitor, single point].

With `Cc1nn(-c2ccccc2)c2sc(C(=O)NCCN3CCOCC3)cc12` as the molecule, how does the Potency read?
The Potency was inconclusive [inhibitor, partial curve].

With `Cc1ccc(NC(=O)CN(C)S(=O)(=O)c2cccs2)cc1C` as the molecule, how does the Potency read?
Its Potency is inconclusive [inhibitor, single point].

With `CC1(C)CCC/C(=C\c2ccccc2)C1=O` as the molecule, how does the Potency read?
The Potency was “inactive”.

With `C/C=C/c1ccc(OCC(=O)Nc2cc(Cl)ccc2-n2cncn2)c(OC)c1` as the molecule, how does the Potency read?
The Potency was inconclusive [inhibitor, single point].

For `Cc1c(Cl)cnc(NC(=O)COC(=O)[C@H](C)NC(=O)c2ccccc2)c1Cl`, which Potency is on record?
The Potency was “inactive”.

Which Potency does the source give for `CCCC(=O)N1CCCC(C(=O)c2cccc(OC(C)C)c2)C1` (stereo unspecified) here?
Its Potency is inconclusive [inhibitor, partial curve].

Which Potency does the source give for `CCN1C(=O)C(O)(CC(=O)c2cccc(-n3cccc3)c2)c2ccccc21` (stereo unspecified) here?
Its Potency is active: 16.4 µM.

Which Potency does the source give for `CCOC(=O)N1CCN(C(C(=O)NC2CCCC2)C(C)C)CC1` (stereo unspecified) here?
The Potency was “inactive”.

For `CN(C)c1cc(-c2ccc(Br)cc2)oc(=O)c1Cl`, which Potency is on record?
The Potency was inconclusive [inhibitor, single point].

With `COc1ccccc1N1CCN(c2nc(CNC(=O)c3sc(C)nc3C)nc3ccccc23)CC1` as the molecule, how does the Potency read?
Its Potency is active: 5.17 µM.

For `CCN(CC)CCN(Cc1cc2cc3c(cc2[nH]c1=O)OCO3)C(=S)NCc1ccco1`, which Potency is on record?
The Potency was inconclusive [inhibitor, single point].

Which Potency does the source give for `CCCS(=O)(=O)c1c(S(=O)(=O)CCC)c2c(N)cccn2c1C(=O)c1ccc(Br)cc1` here?
Its Potency is inconclusive [inhibitor, single point].

Which Potency does the source give for `COc1ccc(C(=O)N2CCN(CCCc3ccccc3)CC2)cc1OC` here?
The Potency was inconclusive [inhibitor, single point].

With `CCOC(=O)c1[nH]c(C)c(C(=O)Nc2ccc(C)c(C)c2)c1C` as the molecule, how does the Potency read?
The Potency was inconclusive [inhibitor, single point].

Which Potency does the source give for `Nc1nc(SCc2ccc(Cl)c(Cl)c2)n[nH]1` here?
The Potency was “inactive”.

For `CCCOc1ccc(NC(=O)CC2C(=O)N(c3cccc(OC)c3)C(=O)N2CCc2ccncc2)cc1` (stereo unspecified), which Potency is on record?
Its Potency is inconclusive [inhibitor, single point].

With `O=C(COC(=O)C(c1ccccc1)c1ccccc1)NCc1ccco1` as the molecule, how does the Potency read?
Its Potency is “inactive”.

Which Potency does the source give for `O=S(=O)(NC1=NCCC1)c1cccc(NC(=S)NCCc2ccccc2)c1` here?
The Potency was inconclusive [inhibitor, single point].

Which activity change, negative = growth inhibition does the source give for `Cc1cc(C)cc(N(CC(=O)Nc2ccccc2-c2ccccc2)S(=O)(=O)c2ccccc2)c1` here?
The activity change, negative = growth inhibition was inconclusive: -31.7% [inhibitor].

Which Potency does the source give for `CCN(CC)c1nc(N2CCOCC2)nc2ccccc12` here?
Its Potency is “inactive”.

For `S=c1[nH]cc(-c2ccccc2)n1-c1ccccc1Cl`, which Potency is on record?
The Potency was inconclusive [inhibitor, single point].

For `Cc1ccc(NC(=O)c2nc[nH]c2C(=O)N[C@@H](C)c2ccccc2)cc1`, which Potency is on record?
The Potency was inconclusive [inhibitor, single point].

With `Cc1c(NC(=O)C(C)OC(=O)CCOc2ccccc2)c(=O)n(-c2ccccc2)n1C` (stereo unspecified) as the molecule, how does the Potency read?
The Potency was “inactive”.

With `CCc1ccc2nc(SCC(=O)N3CCCCC3)c(C#N)cc2c1` as the molecule, how does the Potency read?
Its Potency is inconclusive [inhibitor, single point].

With `CC(C)C(=O)Nc1ccc(N2CCCC2)c(Cl)c1` as the molecule, how does the Potency read?
Its Potency is “inactive”.

For `CC(Oc1ccc(-c2ccccc2)c(F)c1)c1ccn(S(=O)(=O)c2ccc(F)cc2)n1` (stereo unspecified), which Potency is on record?
The Potency was inconclusive [inhibitor, partial curve, poor fit].

With `CCc1ccc(S(=O)(=O)NCCc2cn3ccsc3n2)cc1` as the molecule, how does the Potency read?
The Potency was inconclusive [inhibitor, single point].

Which Potency does the source give for `CCCCn1c(=O)[nH]c(=O)c2c1nc(-c1cc(Br)ccc1OC)n2C` here?
The Potency was inconclusive [inhibitor, single point].

With `Cc1cc(N2CCOCC2)n2nc(C)c(-c3ccccc3)c2n1` as the molecule, how does the Potency read?
The Potency was inconclusive [inhibitor, single point].

With `Cc1ccc(CS(=O)(=O)Cc2ccc(C(=O)NCc3ccco3)o2)cc1` as the molecule, how does the Potency read?
Its Potency is “inactive”.

For `CCN(CC)c1ccc(/C=C(\C#N)c2ccccn2)cc1`, which Potency is on record?
The Potency was active: 2.59 µM.

Which Potency does the source give for `CCc1ccc([C@@H]2CC=C(C(=O)O)CN2S(=O)(=O)c2ccc(C)cc2)cc1` here?
The Potency was “inactive”.

For `Cn1c(=O)c2cc(S(=O)(=O)NC(Cc3ccccc3)C(=O)Nc3ccc(F)cc3)ccc2n(C)c1=O` (stereo unspecified), which Potency is on record?
Its Potency is inconclusive [inhibitor, single point].

For `Cc1ccc(N2CCN(C(=O)N3CCOCC3)CC2)c(C)c1`, which activity change, negative = growth inhibition is on record?
The activity change, negative = growth inhibition was inconclusive: -19.5% [inhibitor].

Which Potency does the source give for `CC(C)Cc1nnc(NC(=O)c2ccc3c(c2)OCCO3)s1` here?
The Potency was “inactive”.

For `OC(c1ccco1)c1nc(-c2cccs2)cs1` (stereo unspecified), which Potency is on record?
The Potency was inconclusive [inhibitor, single point].

For `COc1ccc(C(=O)NC2CCCCCC2)cc1S(=O)(=O)N1CCOCC1`, which Potency is on record?
The Potency was “inactive”.

With `CN(C)c1ccc(C(C(=O)NCc2ccccc2)N(Cc2cccnc2)C(=O)c2snc(C(N)=O)c2N)cc1` (stereo unspecified) as the molecule, how does the Potency read?
Its Potency is active: 16.4 µM.

For `Cc1ccc(NC(=O)CN(C)CC(=O)Nc2ccc(N3CCOCC3)cc2)cc1F`, which Potency is on record?
Its Potency is inconclusive [inhibitor, partial curve].

With `CC(C)N(C(=O)CSc1nnc(NC2CC2)s1)c1ccccc1` as the molecule, how does the Potency read?
The Potency was “inactive”.

For `COc1ccc(-c2[nH]c(-c3ccc(Cl)cc3)nc2SCC(=O)Nc2nccs2)cc1`, which Potency is on record?
Its Potency is active: 23.1 µM.

Which Potency does the source give for `COC(=O)c1ccc(C23CC4(C2)[C@H](CN(Cc2ccc(-c5ccccc5)cc2)[C@@H]4c2ccccc2)C3c2ccc(C(F)(F)F)cc2)cc1` (stereo partly specified) here?
Its Potency is inconclusive [inhibitor, single point].

Which Potency does the source give for `CCN(CC(=O)Nc1cccc(OC)c1)CC(=O)Nc1ccc(C)cc1Cl` here?
The Potency was inconclusive [inhibitor, single point].

With `Fc1ccccc1COc1ccc(C(=S)N2CCCC2)cc1` as the molecule, how does the Potency read?
Its Potency is inconclusive [inhibitor, single point].

For `O=C(NS(=O)(=O)Nc1ccc(Br)cn1)c1c[nH]c2ccccc12`, which Potency is on record?
The Potency was “inactive”.

Which Potency does the source give for `Cc1cc(C)n2nc(SCc3nnc(-c4ccccc4Br)o3)nc2n1` here?
Its Potency is inconclusive [inhibitor, single point].

Which Potency does the source give for `Cc1ccccc1NC(=O)c1cc(C(=O)c2cc(Cl)ccc2O)cn(-c2ccccc2C)c1=O` here?
The Potency was active: 23.1 µM.

With `Cc1nc(-c2ccc(S(=O)(=O)Oc3ccccc3Cl)s2)cs1` as the molecule, how does the Potency read?
Its Potency is inconclusive [inhibitor, partial curve].

For `O=C(Nc1nnc(-c2ccccc2)o1)C1CCCN1S(=O)(=O)c1cccs1` (stereo unspecified), which Potency is on record?
The Potency was inconclusive [inhibitor, single point].

With `NC(COCc1ccccc1)c1csc(Nc2ccc(S(N)(=O)=O)cc2)n1` (stereo unspecified) as the molecule, how does the Potency read?
Its Potency is inconclusive [inhibitor, single point].

For `COCCN(CCOC)c1ncc(Cl)c(C(=O)c2c(C)cc3ccccn23)n1`, which Potency is on record?
The Potency was active: 20.6 µM.

With `Cc1ccc2c(CN3C(=O)NC4(CCCCC4)C3=O)cc(=O)oc2c1C` as the molecule, how does the Potency read?
The Potency was inconclusive [inhibitor, partial curve].

For `COc1ccc(C2C(C(=O)c3sc(C)nc3C)=C(O)C(=O)N2CCCn2ccnc2)cc1OC` (stereo unspecified), which Potency is on record?
Its Potency is “inactive”.

From PubChem BioAssay AID686978 (National Center for Advancing Translational Sciences (NCATS), 2013)
